# Experimental data reported in the supplement of paper PMC8728848.
# This is one part of the list.
# B1: Epa1-NP (Candida glabrata), Q6VBJ0 (protein)
# chain: MILNPALFLNKCVCIYTTLILLLLTNGGYATSSNDISLASKDPTTFPLGCSPDITTPKKGLSMELYSYDFRKKGSYPCWDAAYLDPNYPRTGYKSHRLLAKVDGVTGNINFYYHATKGCTPQLGHLPASYNYPKPLTMTNFTMLLYGYFRPKVTGFHTFTISADDLLFVNFGAGNAFDCCRRDSSADHFGNYQAYAIWGSKTAKDELTVHLDAGVYYPIRLFYNNREYDGALSFTFKTESNENTVSDFSEYFFSLDDTEEGCPGLISYDSSCASVKTSKIIGIDYHTETPNENLVPITKTIYHLGIPCTGTTTTPLCGSGFYDPLANKCVTINTSSTSSVTKTTSHTTSKEVSFHSSISSQKTLIPKSIPSPYGPIKSQSIPTEMETSSEISSSEYAFSDVISTPSHSPYTKKHSSLNSSSYTSTVIHSLTSYSISQGIFSTSLSEQNITSKSSTDKFSTATSMSNNITQSSIIISQFSTNNENYTTTSMHTSSDKISTETLNNSISTTTSILFSNSSTILKNNTTIISSDKDTHYHPVNPTIVCSTNKTEIICASITQPSISNSNNHWSSSVLKFNSTTVRSTLPSSAGSNETSINVPFSSSTESNTSTSSTSTSNSKMVRSTLPSSAGSNETSISVPFSSSTESNTSTSSTSTSNSKMVRSTLPSSAGSNETSINVPFSSSTESNTSTSSTSTSNSKTVRSTPFSSAGIIMTSLSQRNNKSASSYASSNSKCYNTADSCRKVHSTPSYLLTSSYTSEGVDYDCSLVSTKLKINDTNCVNNKHTTKSCLKTSVTTTIPTLEIKTARKSSSNTIGLHSYPTSSPNKSISSAPIIGYISSFKTIKTASPSYQTSDLTTITTITSLNNPGSTAVENTHESNDKSRKTSSNDISSKHSVIKETKDAVESSNKSHQTNTLKCSSIIIASSSHNSYESLGGTTLTLTLSKVYSPQNNDTLPFLEISEVNPSRTVLPESSKMMQYLTSTEERNKTARNTIATNIVSISTFHFEGEGNAIRMGYTQLLLMLIGIIVMNIGT
# Tests used:
# Assay in all cases: glycan array binding signal (z-score within array); higher = stronger binding
# Settings in all cases: glycan notation: IUPAC condensed, linker removed
# [1] = biological target: Neu5Ac(a2-3)Gal(b1-4)GlcNAc(b1-2)Man(a1-3)[Neu5Ac(a2-6)Gal(b1-4)GlcNAc(b1-2)Man(a1-6)]Man(b1-4)GlcNAc(b1-4)GlcNAc
# Outline: (§1)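 Glycan array data came from 3228 arrays in the Consortium for Functional Glycomics database, and only arrays with an available protein sequence were kept. Glycan names were put into IUPAC-condensed notation, and columns mapping to the same glycan were averaged. The binding signal is a within-array Z-score, averaged across arrays of one protein sequence run at different concentrations or buffers and across linkers. A negative Z-score can be read as non-binding.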
# [2] = biological target: Neu5Ac(a2-3)Gal(b1-4)GlcNAc(b1-2)[Neu5Ac(a2-3)Gal(b1-4)GlcNAc(b1-4)]Man(a1-3)[GlcNAc(b1-4)][Neu5Ac(a2-3)Gal(b1-4)GlcNAc(b1-2)[Neu5Ac(a2-3)Gal(b1-4)GlcNAc(b1-6)]Man(a1-6)]Man(b1-4)GlcNAc(b1-4)GlcNAc
# Outline: as §1
# [3] = biological target: Neu5Ac(a2-3)Gal(b1-4)GlcNAc(b1-2)[Neu5Ac(a2-3)Gal(b1-4)GlcNAc(b1-4)]Man(a1-3)[GlcNAc(b1-4)][Neu5Ac(a2-3)Gal(b1-4)GlcNAc(b1-4)Man(a1-6)]Man(b1-4)GlcNAc(b1-4)GlcNAc
# Outline: as §1
# [4] = biological target: Neu5Ac(a2-3)Gal(b1-4)GlcNAc(b1-2)[Neu5Ac(a2-3)Gal(b1-4)GlcNAc(b1-6)]Man(a1-6)[Neu5Ac(a2-3)Gal(b1-4)GlcNAc(b1-2)Man(a1-3)][GlcNAc(b1-4)]Man(b1-4)GlcNAc(b1-4)GlcNAc
# Outline: as §1
# [5] = biological target: Neu5Ac(a2-3)Gal(b1-4)GlcNAc(b1-3)Gal
# Outline: as §1
# [6] = biological target: Neu5Ac(a2-3)Gal(b1-4)GlcNAc(b1-3)Gal(b1-3)GlcNAc
# Outline: as §1
# [7] = biological target: Neu5Ac(a2-3)Gal(b1-4)GlcNAc(b1-3)Gal(b1-4)GlcNAc
# Outline: as §1
# [8] = biological target: Neu5Ac(a2-3)Gal(b1-4)GlcNAc(b1-3)Gal(b1-4)GlcNAc(b1-2)Man(a1-3)[Neu5Ac(a2-3)Gal(b1-4)GlcNAc(b1-3)Gal(b1-4)GlcNAc(b1-2)Man(a1-6)]Man(b1-4)GlcNAc(b1-4)GlcNAc
# Outline: as §1
# [9] = biological target: Neu5Ac(a2-3)Gal(b1-4)GlcNAc(b1-3)Gal(b1-4)GlcNAc(b1-3)Gal(b1-4)GlcNAc
# Outline: as §1
# [10] = biological target: Neu5Ac(a2-3)Gal(b1-4)GlcNAc(b1-3)Gal(b1-4)GlcNAc(b1-3)Gal(b1-4)GlcNAc(b1-2)Man(a1-3)[Neu5Ac(a2-3)Gal(b1-4)GlcNAc(b1-3)Gal(b1-4)GlcNAc(b1-3)Gal(b1-4)GlcNAc(b1-2)Man(a1-6)]GalNAc
# Outline: as §1
# [11] = biological target: Neu5Ac(a2-3)Gal(b1-4)GlcNAc(b1-3)Gal(b1-4)GlcNAc(b1-3)GalNAc
# Outline: as §1
# [12] = biological target: Neu5Ac(a2-3)Gal(b1-4)GlcNAc(b1-3)Gal(b1-4)GlcNAc(b1-3)[Neu5Ac(a2-3)Gal(b1-4)GlcNAc(b1-3)Gal(b1-4)GlcNAc(b1-6)]GalNAc
# Outline: as §1
# [13] = biological target: Neu5Ac(a2-3)Gal(b1-4)GlcNAc(b1-3)Gal(b1-4)GlcNAc(b1-6)[Gal(b1-3)]GalNAc
# Outline: as §1
# [14] = biological target: Neu5Ac(a2-3)Gal(b1-4)GlcNAc(b1-3)Gal(b1-4)[Fuc(a1-3)]GlcNAc
# Outline: as §1
# [15] = biological target: Neu5Ac(a2-3)Gal(b1-4)GlcNAc(b1-3)GalNAc
# Outline: as §1
# [16] = biological target: Neu5Ac(a2-3)Gal(b1-4)GlcNAc(b1-3)[Neu5Ac(a2-3)Gal(b1-4)GlcNAc(b1-6)]GalNAc
# Outline: as §1
# [17] = biological target: Neu5Ac(a2-3)Gal(b1-4)GlcNAc(b1-6)GalNAc
# Outline: as §1
# [18] = biological target: Neu5Ac(a2-3)Gal(b1-4)GlcNAc(b1-6)[Gal(b1-3)]GalNAc
# Outline: as §1
# [19] = biological target: Neu5Ac(a2-3)Gal(b1-4)GlcNAc(b1-6)[Neu5Ac(a2-3)Gal(b1-3)]GalNAc
# Outline: as §1
# [20] = biological target: Neu5Ac(a2-3)Gal(b1-4)GlcNAc6S
# Outline: as §1
# [21] = biological target: Neu5Ac(a2-3)Gal(b1-4)[Fuc(a1-3)]GlcNAc
# Outline: as §1
# [22] = biological target: Neu5Ac(a2-3)Gal(b1-4)[Fuc(a1-3)]GlcNAc(b1-2)Man
# Outline: as §1
# [23] = biological target: Neu5Ac(a2-3)Gal(b1-4)[Fuc(a1-3)]GlcNAc(b1-3)Gal
# Outline: as §1
# [24] = biological target: Neu5Ac(a2-3)Gal(b1-4)[Fuc(a1-3)]GlcNAc(b1-3)Gal(b1-4)GlcNAc
# Outline: as §1
# [25] = biological target: Neu5Ac(a2-3)Gal(b1-4)[Fuc(a1-3)]GlcNAc(b1-3)Gal(b1-4)[Fuc(a1-3)]GlcNAc(b1-3)Gal(b1-4)[Fuc(a1-3)]GlcNAc
# Outline: as §1
# [26] = biological target: Neu5Ac(a2-3)Gal(b1-4)[Fuc(a1-3)]GlcNAc(b1-3)GalNAc
# Outline: as §1
# [27] = biological target: Neu5Ac(a2-3)Gal(b1-4)[Fuc(a1-3)]GlcNAc(b1-6)[Gal(b1-3)]GalNAc
# Outline: as §1
# [28] = biological target: Neu5Ac(a2-3)Gal(b1-4)[Fuc(a1-3)]GlcNAc(b1-6)[Neu5Ac(a2-3)Gal(b1-3)]GalNAc
# Outline: as §1
# [29] = biological target: Neu5Ac(a2-3)Gal(b1-4)[Fuc(a1-3)]GlcNAc6S
# Outline: as §1
# [30] = biological target: Neu5Ac(a2-3)Gal6S(b1-4)GlcNAc
# Outline: as §1
binder,measurement,setting,value
B1,glycan array binding signal (z-score),[1],-0.299
same,glycan array binding signal (z-score),[2],-0.294
same,glycan array binding signal (z-score),[3],-0.295
same,glycan array binding signal (z-score),[4],-0.281
same,glycan array binding signal (z-score),[5],-0.263
same,glycan array binding signal (z-score),[6],-0.318
same,glycan array binding signal (z-score),[7],-0.313
same,glycan array binding signal (z-score),[8],-0.207
same,glycan array binding signal (z-score),[9],-0.422
same,glycan array binding signal (z-score),[10],-0.272
same,glycan array binding signal (z-score),[11],-0.291
same,glycan array binding signal (z-score),[12],-0.083
same,glycan array binding signal (z-score),[13],0.646
same,glycan array binding signal (z-score),[14],-0.418
same,glycan array binding signal (z-score),[15],-0.306
same,glycan array binding signal (z-score),[16],-0.286
same,glycan array binding signal (z-score),[17],-0.288
same,glycan array binding signal (z-score),[18],1.85
same,glycan array binding signal (z-score),[19],-0.253
same,glycan array binding signal (z-score),[20],-0.327
same,glycan array binding signal (z-score),[21],-0.326
same,glycan array binding signal (z-score),[22],-0.289
same,glycan array binding signal (z-score),[23],-0.324
same,glycan array binding signal (z-score),[24],-0.211
same,glycan array binding signal (z-score),[25],-0.334
same,glycan array binding signal (z-score),[26],0.089
same,glycan array binding signal (z-score),[27],0.111
same,glycan array binding signal (z-score),[28],-0.253
same,glycan array binding signal (z-score),[29],-0.331
same,glycan array binding signal (z-score),[30],-0.318
